Laboratory results reported in the supplement of paper PMC8728848.
The list shows a part of the results.

Tests used:
Assay in all cases: glycan array binding signal (z-score within array); higher = stronger binding
Settings in all cases: glycan notation: IUPAC condensed, linker removed
[1] = biological target: Neu5Ac(a2-6)Gal(b1-4)GlcNAc6S
Summary of the method: (§1)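 From the Consortium for Functional Glycomics database, 3228 arrays were curated, keeping only those whose protein sequence was available. Binding is given as a within-array Z-score averaged across arrays sharing a protein sequence and across linkers. Negative Z-scores can be read as non-binding.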

Neu5Ac(a2-6)GalNAc = biological target: Neu5Ac(a2-6)GalNAc
Summary of the method: as §1

[2] = biological target: Neu5Ac(a2-6)GalNAc(b1-4)GlcNAc
Summary of the method: as §1

[3] = biological target: Neu5Ac(a2-6)GalNAc(b1-4)GlcNAc6S
Summary of the method: as §1

[4] = biological target: Neu5Ac(a2-6)GlcNAc(b1-4)GlcNAc
Summary of the method: as §1

[5] = biological target: Neu5Ac(a2-6)GlcNAc(b1-4)GlcNAc(b1-4)GlcNAc
Summary of the method: as §1

Neu5Ac(a2-8)Neu5Ac = biological target: Neu5Ac(a2-8)Neu5Ac
Summary of the method: as §1

[6] = biological target: Neu5Ac(a2-8)Neu5Ac(a2-3)Gal(b1-3)GalNAc(b1-4)[Neu5Ac(a2-3)]Gal(b1-4)Glc
Summary of the method: as §1

[7] = biological target: Neu5Ac(a2-8)Neu5Ac(a2-3)Gal(b1-3)GalNAc(b1-4)[Neu5Ac(a2-8)Neu5Ac(a2-3)]Gal(b1-4)Glc
Summary of the method: as §1

[8] = biological target: Neu5Ac(a2-8)Neu5Ac(a2-3)Gal(b1-4)Glc
Summary of the method: as §1

[9] = biological target: Neu5Ac(a2-8)Neu5Ac(a2-3)Gal(b1-4)GlcNAc
Summary of the method: as §1

[10] = biological target: Neu5Ac(a2-8)Neu5Ac(a2-3)[Gal(b1-3)GalNAc(b1-4)]Gal(b1-4)Glc
Summary of the method: as §1

[11] = biological target: Neu5Ac(a2-8)Neu5Ac(a2-3)[GalNAc(b1-4)]Gal(b1-4)Glc
Summary of the method: as §1

[12] = biological target: Neu5Ac(a2-8)Neu5Ac(a2-8)Neu5Ac
Summary of the method: as §1

[13] = biological target: Neu5Ac(a2-8)Neu5Ac(a2-8)Neu5Ac(a2-3)Gal(b1-4)Glc
Summary of the method: as §1

[14] = biological target: Neu5Ac(a2-8)Neu5Ac(a2-8)Neu5Ac(a2-3)[Gal(b1-3)GalNAc(b1-4)]Gal(b1-4)Glc
Summary of the method: as §1

[15] = biological target: Neu5Ac(a2-8)Neu5Ac(a2-8)Neu5Ac(a2-3)[GalNAc(b1-4)]Gal(b1-4)Glc
Summary of the method: as §1

[16] = biological target: Neu5Ac(a2-8)Neu5Ac(a2-8)Neu5Ac(a2-8)Neu5Ac(a2-3)[GalNAc(b1-4)]Gal(b1-4)Glc
Summary of the method: as §1

[17] = biological target: Neu5Ac(a2-8)Neu5Gc(a2-3)Gal(b1-4)GlcNAc
Summary of the method: as §1

[18] = biological target: Neu5Ac(b2-6)Gal(b1-4)GlcNAc
Summary of the method: as §1

Neu5Ac(b2-6)GalNAc = biological target: Neu5Ac(b2-6)GalNAc
Summary of the method: as §1

[19] = biological target: Neu5Ac9Ac(a2-3)Gal(b1-3)GlcNAc
Summary of the method: as §1

[20] = biological target: Neu5Ac9Ac(a2-3)Gal(b1-4)GlcNAc
Summary of the method: as §1

[21] = biological target: Neu5Ac9Ac(a2-6)Gal(b1-4)GlcNAc
Summary of the method: as §1

[22] = biological target: Neu5Gc(a2-3)Gal(b1-3)GlcNAc
Summary of the method: as §1

[23] = biological target: Neu5Gc(a2-3)Gal(b1-3)[Fuc(a1-4)]GlcNAc
Summary of the method: as §1

Neu5Gc(a2-3)Gal(b1-4)Glc = biological target: Neu5Gc(a2-3)Gal(b1-4)Glc
Summary of the method: as §1

[24] = biological target: Neu5Gc(a2-3)Gal(b1-4)GlcNAc
Summary of the method: as §1

[25] = biological target: Neu5Gc(a2-3)Gal(b1-4)GlcNAc(b1-3)Gal(b1-4)GlcNAc(b1-2)Man(a1-3)[Neu5Gc(a2-3)Gal(b1-4)GlcNAc(b1-3)Gal(b1-4)GlcNAc(b1-2)Man(a1-6)]Man(b1-4)GlcNAc(b1-4)GlcNAc
Summary of the method: as §1

[26] = biological target: Neu5Gc(a2-3)Gal(b1-4)[Fuc(a1-3)]GlcNAc
Summary of the method: as §1

[27] = biological target: Neu5Gc(a2-6)Gal(b1-4)GlcNAc
Summary of the method: as §1

Neu5Gc(a2-6)GalNAc = biological target: Neu5Gc(a2-6)GalNAc
Summary of the method: as §1

[28] = biological target: Neu5Gc(a2-8)Neu5Ac(a2-3)Gal(b1-4)GlcNAc
Summary of the method: as §1

[29] = biological target: Neu5Gc(a2-8)Neu5Gc(a2-3)Gal(b1-4)GlcNAc
Summary of the method: as §1

[30] = biological target: Neu5Gc(a2-8)Neu5Gc(a2-3)Gal(b1-4)GlcNAc(b1-3)Gal(b1-4)GlcNAc
Summary of the method: as §1

[31] = biological target: Neu5Gc(a2-8)Neu5Gc(a2-6)Gal(b1-4)GlcNAc
Summary of the method: as §1

[32] = biological target: Neu5Gc(b2-6)Gal(b1-4)GlcNAc
Summary of the method: as §1

B1: Siglec-7-SA-PE-180 (Homo sapiens), Q9Y286 (protein)
chain: MLLLLLLPLLWGRERVEGQKSNRKDYSLTMQSSVTVQEGMCVHVRCSFSYPVDSQTDSDPVHGYWFRAGNDISWKAPVATNNPAWAVQEETRDRFHLLGDPQTKNCTLSIRDARMSDAGRYFFRMEKGNIKWNYKYDQLSVNVTALTHRPNILIPGTLESGCFQNLTCSVPWACEQGTPPMISWMGTSVSPLHPSTTRSSVLTLIPQPQHHGTSLTCQVTLPGAGVTTNRTIQLNVSYPPQNLTVTVFQGEGTASTALGNSSSLSVLEGQSLRLVCAVDSNPPARLSWTWRSLTLYPSQPSNPLVLELQVHLGDEGEFTCRAQNSLGSQHVSLNLSLQQEYTGKMRPVSGVLLGAVGGAGATALVFLSFCVIFIVVRSCRKKSARPAADVGDIGMKDANTIRGSASQGNLTESWADDNPRHHGLAAHSSGEEREIQYAPLSFHKGEPQDLSGQEATNNEYSEIKIPK
glycan array binding signal (z-score) [1]: 0.616 | glycan array binding signal (z-score) (Neu5Ac(a2-6)GalNAc): -0.249 | glycan array binding signal (z-score) [2]: -0.408 | glycan array binding signal (z-score) [3]: 0.866 | glycan array binding signal (z-score) [4]: 0.062 | glycan array binding signal (z-score) [5]: 0.256 | glycan array binding signal (z-score) (Neu5Ac(a2-8)Neu5Ac): 2.11 | glycan array binding signal (z-score) [6]: 0.073 | glycan array binding signal (z-score) [7]: -0.144 | glycan array binding signal (z-score) [8]: -0.23 | glycan array binding signal (z-score) [9]: -0.281 | glycan array binding signal (z-score) [10]: -0.067 | glycan array binding signal (z-score) [11]: -0.166 | glycan array binding signal (z-score) [12]: -0.114 | glycan array binding signal (z-score) [13]: 0.277 | glycan array binding signal (z-score) [14]: -0.076 | glycan array binding signal (z-score) [15]: -0.3 | glycan array binding signal (z-score) [16]: 0.404 | glycan array binding signal (z-score) [17]: -0.201 | glycan array binding signal (z-score) [18]: -0.215 | glycan array binding signal (z-score) (Neu5Ac(b2-6)GalNAc): 0.102 | glycan array binding signal (z-score) [19]: -0.351 | glycan array binding signal (z-score) [20]: -0.346 | glycan array binding signal (z-score) [21]: -0.116 | glycan array binding signal (z-score) [22]: -0.155 | glycan array binding signal (z-score) [23]: -0.221 | glycan array binding signal (z-score) (Neu5Gc(a2-3)Gal(b1-4)Glc): 0.401 | glycan array binding signal (z-score) [24]: 0.198 | glycan array binding signal (z-score) [25]: 0.589 | glycan array binding signal (z-score) [26]: 0.13 | glycan array binding signal (z-score) [27]: 0.747 | glycan array binding signal (z-score) (Neu5Gc(a2-6)GalNAc): 2.26 | glycan array binding signal (z-score) [28]: -0.398 | glycan array binding signal (z-score) [29]: -0.256 | glycan array binding signal (z-score) [30]: 0.081 | glycan array binding signal (z-score) [31]: -0.092 | glycan array binding signal (z-score) [32]: -0.05
